# Source: article PMC4336329 (PLoS ONE, 2015)
# In all, about 310,000 compounds went through this assay and about 2,200 (0.71%) showed an effect of 50% or more. The effect is printed as a negative number. Some of the results follow.
# Molecular target: human ether-à-go-go-related gene (hERG) potassium channel (human, UniProt Q12809)
# Test: primary screen, population patch clamp on CHO cells stably expressing hERG
# Chain of human ether-à-go-go-related gene (hERG) potassium channel (Q12809 whole entry, looked up): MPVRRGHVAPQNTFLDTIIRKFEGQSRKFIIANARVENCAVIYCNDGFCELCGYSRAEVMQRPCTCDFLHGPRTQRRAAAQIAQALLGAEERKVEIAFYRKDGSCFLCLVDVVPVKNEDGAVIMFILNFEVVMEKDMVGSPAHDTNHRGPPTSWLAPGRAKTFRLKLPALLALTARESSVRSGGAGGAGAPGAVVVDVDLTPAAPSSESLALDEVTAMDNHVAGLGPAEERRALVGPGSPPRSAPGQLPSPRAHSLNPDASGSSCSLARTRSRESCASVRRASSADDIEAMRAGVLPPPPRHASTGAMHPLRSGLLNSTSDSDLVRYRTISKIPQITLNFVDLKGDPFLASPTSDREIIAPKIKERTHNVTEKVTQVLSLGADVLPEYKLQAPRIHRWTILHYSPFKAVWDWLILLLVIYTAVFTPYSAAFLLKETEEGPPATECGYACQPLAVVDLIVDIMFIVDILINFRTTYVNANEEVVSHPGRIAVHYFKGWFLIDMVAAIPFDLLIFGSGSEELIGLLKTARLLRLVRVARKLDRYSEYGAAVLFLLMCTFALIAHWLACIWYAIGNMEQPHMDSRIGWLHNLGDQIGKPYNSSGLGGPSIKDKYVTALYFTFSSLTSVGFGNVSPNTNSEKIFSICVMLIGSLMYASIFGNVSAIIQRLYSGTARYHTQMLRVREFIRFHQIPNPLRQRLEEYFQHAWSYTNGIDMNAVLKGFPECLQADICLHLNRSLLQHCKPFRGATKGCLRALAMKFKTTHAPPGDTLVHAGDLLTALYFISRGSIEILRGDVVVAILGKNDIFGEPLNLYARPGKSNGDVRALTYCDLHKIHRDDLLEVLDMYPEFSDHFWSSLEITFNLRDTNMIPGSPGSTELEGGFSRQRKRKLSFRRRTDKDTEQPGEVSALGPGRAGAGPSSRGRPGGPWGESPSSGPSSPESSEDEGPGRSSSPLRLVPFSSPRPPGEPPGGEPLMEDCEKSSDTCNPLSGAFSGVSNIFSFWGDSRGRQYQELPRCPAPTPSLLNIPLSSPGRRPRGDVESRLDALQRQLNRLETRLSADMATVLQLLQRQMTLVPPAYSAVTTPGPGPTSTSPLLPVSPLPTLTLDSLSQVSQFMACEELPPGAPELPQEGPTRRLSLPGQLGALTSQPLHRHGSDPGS
row,SMILES,"hERG current change (%, negative = inhibition) at 1uM [%]"
1,O=[N+]([O-])c1ccccc1CCl,12.3
2,CCc1ccc(OCC(=O)NC2CCCCC2)c(Br)c1,11.9
3,CCOc1ccc(N(CC(=O)OC)S(=O)(=O)c2ccc(OC)c(OC)c2)cc1,-0.463
4,CC(=O)NC(=S)Nc1ccc(S(=O)(=O)Nc2ncccn2)cc1,15
5,O=C(OCc1ccc(Cl)cc1)c1cccnc1Cl,11.8
6,CC(=O)Nc1ccc(NC(=O)COC(=O)/C(=C/c2ccccc2)n2nnnc2C)cc1,8.75
7,COc1ccc(CCC2(C)NC(=O)N(C(C)C(=O)N3c4ccccc4CC3C)C2=O)cc1 (centres unmarked),3.27
8,COc1ccccc1N1CCN(C(=O)C2CC(=O)N(c3ccccc3)C2)CC1 (centres unmarked),6.55
9,COc1ccc(OC)c(CCNC(=O)CC2(CC3=NS(=O)(=O)c4ccccc4N3)CCCC2)c1,13.4
10,Cc1cccc(NC(=S)N2CCN(S(=O)(=O)c3ccccc3)CC2)c1,13.3
11,O=Cc1c(C(=O)O)n(Cc2ccc(F)cc2Cl)c2ccccc12,13.9
12,COc1cc(C2CC(c3c(C)cc(C)[nH]c3=O)=NN2c2ccccc2F)cc(OC)c1OC (centres unmarked),9.5
13,Cc1cccc(NC(=S)N2CCOCC2)c1C,1.96
14,COC(=O)C1=CN(c2cccc(C)c2)C=C(C(=O)OC)C1c1cc(OC)c(O)c([N+](=O)[O-])c1,12.8
15,CC1CC(C)CN(C(=O)C(Cc2ccccc2)NC(=O)c2ccccc2)C1 (centres unmarked),4.65
16,Fc1ccc(-n2[nH]nnc2=S)cc1N1CCCC1,18.4
17,c1ccc2c(c1)CCCC2NC1=NCCC1 (centres unmarked),-4.9
18,Cn1cccc1CC(=O)NNC(=S)Nc1ccc(Cl)cc1Cl,10.4
19,CC(C)C(NCc1c(Cl)cccc1Cl)C(=O)O (centres unmarked),4.7

row,SMILES,"hERG current change (%, negative = inhibition) at 1uM [%]"
1,NS(=O)(=O)c1ccc(CCNC(=O)CCC2COc3ccccc3O2)cc1 (centres unmarked),6.61
2,COc1ccc(CCC(C)NC(=O)Cc2ccc(OC)c(OC)c2)c(OC)c1 (centres unmarked),16.5
3,CN(C)c1ccc(/C=N/c2cc(-c3ccccc3)nn2-c2ccccc2)cc1,-3.67
4,Cc1ccnc(N2C(=O)c3cccc4c([N+](=O)[O-])ccc(c34)C2=O)c1,8.63
5,Cc1cccc(NC(=O)CNC(=O)c2cccs2)n1,14.9
6,CCN1CCN(C(=O)COc2ccc3c(c2)C(=O)CC2(CCN(C(C)=O)CC2)O3)CC1,18.1
7,COc1ccccc1NC(=O)C(C)Sc1nnc2ccccn12 (centres unmarked),9.38
8,Cc1n[nH]c(=O)c2c(NC(=O)CSc3ccccc3Cl)oc(C)c12,-7.79
9,Cc1ccc2nc(NC(=O)C3CCN(S(=O)(=O)c4cc([N+](=O)[O-])ccc4Cl)CC3)sc2c1,-2.71
10,Cc1ccc(NC2c3ncccc3C(=O)N2Cc2cccs2)cc1 (centres unmarked),0.478
11,Cc1cc(OCC(=O)OCC(=O)NC2CCCCCC2)ccc1Cl,11.8
12,COc1ccccc1N(C(=O)c1snc(C(N)=O)c1N)C(C(=O)NC1CCCC1)c1ccc(N(C)C)cc1 (centres unmarked),11.9
13,O=C(CSc1ccc(Cl)cc1)Nc1cccc(-c2nc3ncccc3o2)c1,7.51
14,CCOC(=O)c1nc(-c2ccc(OC)c(OC)c2)cnc1C#N,5.05
15,O=C(CN1C(=O)NC2(CCc3ccccc32)C1=O)Nc1ccc(N2CCOCC2)cc1 (centres unmarked),9.49
16,CCOc1cccc(-c2c(C(=O)N/N=C(\C)c3ccccn3)nnn2-c2nonc2N)c1,10.5
17,COc1cc(NC(=O)c2cnn3c(C(F)F)cc(C4CC4)nc23)c(OC)cc1Cl,6.95
18,CC(=O)Nc1ccc(NC(=O)C2CC(=O)N(c3ccc(Cl)cc3)C2)cc1 (centres unmarked),2.97
19,CN(Cc1ccccc1F)c1nc(-c2cccnc2)nc2ccccc12,13.1

row,SMILES,"hERG current change (%, negative = inhibition) at 1uM [%]"
1,Cc1ccc(S(=O)(=O)c2nc(S(C)(=O)=O)sc2N2CCC(C)CC2)cc1,16.5
2,COC(=O)c1ccc2c(=O)n(CCCCCC(=O)NCCNC(C)=O)c(=O)[nH]c2c1,3.48
3,Cc1ccc(C(=O)NC2CCN(CC(=O)NCc3cccs3)CC2)cc1,2.06
4,Cc1ccc(C(C(=O)NCc2ccco2)N(C(=O)CNC(=O)c2cccs2)c2ccc(C)cc2C)cc1 (centres unmarked),10.3
5,COC(=O)CCNC(=O)c1ccc2nc(Cc3ccc(OC)c(OC)c3)oc2c1,12.8
6,CCOP(=O)(OCC)C1(C(=O)[O-])CCCC1.[NH4+],4.97
7,CCCCn1c(SCC(=O)Nc2nnc(CC)s2)nc2ccccc2c1=O,9.12
8,CCN(CC)CCN(CC)Cc1ccccc1Br,1.33
9,FC(F)(F)c1cnc(-c2cnc(-c3ccncc3)nc2)c(Cl)c1,7.49
10,Br.O=C(Cn1c(NCCO)nc2ccccc21)c1ccco1,8.49
11,O=C1N(c2ccccc2C(F)(F)F)O[C@@]1(c1ccccc1)C1CCCC1,9.53
12,CN1c2ccccc2-c2nc3ccccc3n2C1c1ccco1 (centres unmarked),4.94
13,Cc1[nH]nc(SCC(=O)NC(C)c2ccccc2)c1[N+](=O)[O-] (centres unmarked),9.39
14,O=C1CC(N2CCSCC2)C(=O)N1c1ccc(Br)cc1 (centres unmarked),4.38
15,CC(=O)Nc1cccc(N/C=C(\C=O)c2nc3ccccc3o2)c1,-4.54
16,NC(=O)c1cc(S(=O)(=O)NCc2ccc(F)cc2)cs1,10.3
17,COc1ccc(-c2csc(=Nc3c(C)n(C)n(-c4ccccc4)c3=O)n2C(C)(C)C)cc1,0.379
18,CCC(=C(c1ccc(OC)cc1)c1ccc(OC)cc1)c1cn(CC(O)CN2CCN(C)CC2)c2ccccc12 (centres unmarked),2.64
